Source: patent US9604926B2 (THE UNIVERSITY OF MISSISSIPPI, priority 2007, dated 2017)
Like-named read-outs stand apart in the source and are kept apart here.

Tests used:
σ-1 receptor = σ-1 receptor (Rattus norvegicus (Rat), UniProt Q9R0C9); test: σ-1 receptor binding in rat brain homogenates ([3H](+)-pentazocine)
σ-2 receptor = σ-2 receptor (Rattus norvegicus (Rat), UniProt Q5U3Y7); test: σ-2 receptor binding in rat brain homogenates ([3H]DTG plus (+)-pentazocine)
[1] = read-out: Ki (nM) σ1, compound listing tables
[2] = read-out: Ki (nM) σ2, compound listing tables
[3] = read-out: Ki (nm) σ1, compound listing tables
[4] = read-out: Ki (nm) σ2, compound listing tables
[5] = read-out: σ-1 (Ki), rat brain homogenates

UniProt Q5U3Y7, sequence (Q5U3Y7 whole entry): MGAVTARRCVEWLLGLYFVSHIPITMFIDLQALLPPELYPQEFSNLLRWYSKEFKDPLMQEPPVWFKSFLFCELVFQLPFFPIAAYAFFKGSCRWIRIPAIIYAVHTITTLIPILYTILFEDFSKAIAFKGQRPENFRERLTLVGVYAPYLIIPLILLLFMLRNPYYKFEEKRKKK
UniProt Q9R0C9, sequence (Q9R0C9 whole entry): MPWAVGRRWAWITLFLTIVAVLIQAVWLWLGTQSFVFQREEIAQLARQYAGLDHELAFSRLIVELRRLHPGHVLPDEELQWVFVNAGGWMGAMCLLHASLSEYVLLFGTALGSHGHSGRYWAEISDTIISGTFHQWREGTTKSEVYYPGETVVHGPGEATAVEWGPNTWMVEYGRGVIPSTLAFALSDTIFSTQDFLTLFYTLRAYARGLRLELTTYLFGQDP

Row | SMILES | Ki (σ-1 receptor; [1]) | Ki (σ-2 receptor; [2]) | also measured
1 | O=c1oc2ccccc2n1CCCCN1CCN(CCc2ccccc2)CC1 [CM 166] | 3.15 ± 0.37 nM | 92.7 ± 14.1 nM | –
2 | O=c1oc2ccccc2n1CCCCN1CCCCC1 [SN-60] | – | 213 nM | –
3 | Cn1c(=O)n(CCCCN2CCN(c3ccc(F)cc3)CC2)c2cc([N+](=O)[O-])ccc21 [CM 608] | – | 4.72 ± 0.42 nM | –
4 | O=c1oc2ccccc2n1CCN1CCN(CCc2ccccc2)CC1 [CM 176] | 1.43 ± 0.26 nM | – | –
5 | Cc1ccc(N2CCN(CCCCn3c(=O)oc4ccccc43)CC2)cc1 [SN-252] | – | – | Ki (σ-1 receptor; [3]): 213 ± 22.2 nM
6 | O=C(c1ccccc1)c1ccc2c(c1)oc(=O)n2CCN1CCCCCC1 [SN-78] | 88.3 nM | 860 nM | –
7 | O=c1oc2ccccc2n1CCCCN1CCN(c2ccc(C(F)(F)F)cc2)CC1 [SN-250] | – | – | Ki (σ-1 receptor; [3]): 87.6 ± 8.77 nM; Ki (σ-2 receptor; [4]): 98.8 ± 1.08 nM
8 | O=c1oc2cc(-c3ccc(F)cc3)ccc2n1CCCCN1CCN(C2CCCCC2)CC1 [CM 343] | 17.6 ± 0.82 nM | 38.1 ± 1.42 nM | –
9 | O=c1oc2ccccc2n1CCN1CCN(c2ccc(Cl)cc2)CC1 [CM 179] | – | 2260 ± 96.1 nM | –
10 | O=c1oc2ccc(Br)cc2n1CCCCN1CCN(C2CCCCC2)CC1 [CM 365] | 5.94 ± 0.35 nM | 0.055 ± 0.0063 nM | –
11 | O=c1oc2ccccc2n1CCCCCCN1CCN(C2CCCCC2)CC1 [SN-48] | 4.6 nM | – | Ki (σ-1 receptor; [5]): 4.6 ± 1.08 nM
12 | O=c1oc2ccccc2n1CCCCN1CCN(c2ccc(Cl)cc2)CC1 [CM 169] | 25.4 ± 4.72 nM | 242 ± 29 nM | –
13 | CC(=O)c1ccc2c(c1)oc(=O)n2CCCC(C)N1CCN(c2ccc(F)cc2)CC1 (stereo not shown) [CM 600] | 27.1 ± 2.32 nM | 2.15 ± 0.09 nM | –
14 | S=c1sc2ccccc2n1CCCCN1CCN(C2CCCCC2)CC1 [CM 156] | – | 0.55 ± 0.08 nM | –
15 | O=c1[nH]c2ccc(-c3ccc(F)cc3)cc2n1CCCCN1CCN(C2CCCCC2)CC1 [CM 366] | 22.6 ± 1.14 nM | 0.0061 ± 0.00096 nM | –
16 | CC(=O)c1ccc2c(c1)OCC(=O)N2CCCCN1CCN(c2ccc(F)cc2)CC1 [CM 627] | – | 6.34 ± 0.17 nM | –
17 | S=c1oc2ccccc2n1CCCCN1CCN(C2CCCCC2)CC1 [CM 372] | – | 0.77 ± 0.06 nM | –
18 | CCc1ccc2oc(=O)n(CCCCN3CCN(C4CCCCC4)CC3)c2c1 [CM 174] | 4.04 ± 0.35 nM | – | –
19 | O=c1oc2ccccc2n1CCCCN1CCN(C2CCCCC2)CC1 [CM 121] | 11.3 ± 1.25 nM | – | Ki (σ-1 receptor; [5]): 11.3 ± 1.25 nM
20 | O=c1[nH]c2ccccc2n1CCCCN1CCN(c2ccc(F)cc2)CC1 [CM 728] | 186 ± 11.8 nM | 29.6 ± 1.51 nM | –
21 | CCCCCCC(=O)c1ccc2c(c1)sc(=O)n2CCCCN1CCN(C2CCCCC2)CC1 [SN-57] | 43.8 nM | 29.3 nM | –
22 | O=C1CCN(CCCCn2c(=O)oc3ccccc32)CC1 [CM 152] | – | 78.5 ± 39.6 nM | –

Row | SMILES | Ki (σ-1 receptor; [1]) | Ki (σ-2 receptor; [2]) | also measured
23 | COc1cc2c(cc1OC)CN(CCCCn1c(=O)oc3ccccc31)CC2 [CM 295] | – | 1.52 ± 0.64 nM | –
24 | O=c1sc2cc(F)ccc2n1CCCCN1CCN(C2CCCCC2)CC1 [AZ-68] | – | – | Ki (σ-2 receptor; [4]): 0.22 ± 0.09 nM
25 | O=c1oc2cc([N+](=O)[O-])ccc2n1CCCCN1CCN(C2CCCCC2)CC1 [CM 188] | – | 2.46 ± 0.18 nM | –
26 | CCCc1ccc2c(c1)oc(=O)n2CCN1CCN(C2CCCCC2)CC1 [SC-12] | – | – | Ki (σ-2 receptor; [4]): 4.02 ± 0.23 nM
27 | Cn1c(=O)n(CCCCN2CCN(c3ccc(F)cc3)CC2)c2ccccc21 [CM 397] | – | 0.46 ± 0.03 nM | –
28 | O=c1oc2ccccc2n1CCCCN1CCN(c2ccc([N+](=O)[O-])cc2)CC1 [CM 167] | 259 ± 33.5 nM | 226 ± 17.5 nM | –
29 | COc1cc2c(cc1OC)CN(CCCCn1c(=S)sc3ccccc31)CC2 [CM 308] | – | 0.56 ± 0.12 nM | –
30 | CC(=O)c1ccc(NCCCCN2CCN(c3ccc(F)cc3)CC2)c(O)c1 [CM 623] | – | 44.1 ± 3.4 nM | –
31 | CCC(=O)c1ccc2oc(=O)n(CCN3CCCCCC3)c2c1 [SN-71] | – | 2340 nM | –
32 | CCC(=O)c1ccc2c(c1)oc(=O)n2CCN1CCN(C2CCCCC2)CC1 [SC-10] | – | – | Ki (σ-2 receptor; [4]): 4.85 ± 0.31 nM
33 | COc1cc2c(cc1OC)CN(CCCCn1ccc3ccccc31)CC2 [CM 360] | 73.2 ± 5.58 nM | – | –
34 | O=c1oc2ccccc2n1CCN1CCC(c2ccccc2)CC1 [CM 182] | 14.1 ± 2.84 nM | 777 ± 72.5 nM | –
35 | CC(=O)c1ccc2oc(=O)n(CCCCN3CCN(C4CCCCC4)CC3)c2c1 [CM 184] | 40.8 ± 6.21 nM | 10.4 ± 1.54 nM | –
36 | Fc1ccc(N2CCN(CCCCn3ccc4ccccc43)CC2)cc1 [CM 338] | – | 1.09 ± 0.03 nM | –
37 | CC(O)c1ccc2c(c1)oc(=O)n2CCCCN1CCN(c2ccc(F)cc2)CC1 (stereo not shown) [SN-249] | – | – | Ki (σ-2 receptor; [4]): 8.68 ± 0.57 nM
38 | CCCCCCCc1ccc2c(c1)sc(=O)n2CCCCN1CCN(C2CCCCC2)CC1 [SN-55] | 34.1 nM | 31.4 nM | –
39 | Cn1c(=O)n(CCCCN2CCN(c3ccc(F)cc3)CC2)c2cc(N=C=S)ccc21 [CM 617] | – | 30.1 ± 3.42 nM | –
40 | CC(=O)c1ccc2[nH]c(=O)n(CCCCN3CCN(c4ccc(F)cc4)CC3)c2c1 [CM 356] | 27.8 ± 4.14 nM | 1.21 ± 0.2 nM | –
41 | O=c1oc2ccccc2n1CCCCN1CCN(c2ccccc2)CC1 [SN-251] | – | – | Ki (σ-1 receptor; [3]): 18.4 ± 1.46 nM; Ki (σ-2 receptor; [4]): 11.4 ± 1.15 nM
42 | Cl.Cl.O=c1sc2ccccc2n1CCCCCCN1CCN(C2CCCCC2)CC1 [SN-102] | 6.55 nM | – | –
43 | CC(CCCN1C(=O)CSc2ccccc21)N1CCN(C2CCCCC2)CC1 (stereo not shown) [AZ-60] | – | – | Ki (σ-2 receptor; [4]): 5.49 ± 1.1 nM
44 | O=c1oc2ccccc2n1CCCCN1CCN(c2ccc(F)cc2F)CC1 [CM 624] | – | 1.96 ± 0.11 nM | –

Row | SMILES | Ki (σ-1 receptor; [1]) | Ki (σ-2 receptor; [2]) | also measured
45 | O=c1oc2ccccc2n1CCCCN1CCN(c2ccccn2)CC1 [CM 168] | 312 ± 33.2 nM | 128 ± 16.3 nM | –
46 | CC(F)c1ccc2c(c1)oc(=O)n2CCCCN1CCN(c2ccc(F)cc2)CC1 (stereo not shown) [SN-253] | – | – | Ki (σ-2 receptor; [4]): 6.12 ± 0.37 nM
47 | Nc1ccc2c(c1)oc(=O)n2CCCCN1CCN(c2ccc(F)cc2)CC1 [SN-228] | – | – | Ki (σ-1 receptor; [3]): > 10000 nM
48 | O=c1n(CCCCN2CCN(c3ccc(F)cc3)CC2)c2ccccc2n1-c1ccc(F)cc1 [CM 322] | – | 1.67 ± 0.16 nM | –
49 | CCC(=O)c1ccc2c(c1)sc(=O)n2CCN1CCN(C2CCCCC2)CC1 [SC-5] | – | – | Ki (σ-2 receptor; [4]): 3.73 ± 0.43 nM
50 | Cn1c(=O)n(CCCCN2CCN(c3ccc(F)cc3N)CC2)c2ccccc21 [CM 599] | – | 3.59 ± 0.12 nM | –
51 | CC(=O)c1ccc2c(c1)oc(=S)n2CCCCN1CCN(c2ccc(F)cc2)CC1 [CM 625] | – | 1.88 ± 0.13 nM | –
52 | O=c1oc2ccccc2n1CCN1CC=C(c2ccc(Cl)cc2)CC1 [CM 175] | 21.4 ± 3.68 nM | 616 ± 77.5 nM | –
53 | Cn1c(=O)n(CCCCN2CCN(c3ccc(F)cc3)CC2)c2cc(N)ccc21 [CM 609] | – | 26.6 ± 2.74 nM | –
54 | CC(=O)Nc1ccc2c(c1)oc(=O)n2CCCCN1CCN(C2CCCCC2)CC1 [CM 191] | 214 ± 55.3 nM | 77.4 ± 14.2 nM | –
55 | CC(=O)c1ccc2c(c1)oc(=O)n2CCCCN1CC=C(c2ccc(F)cc2)CC1 [CM 401] | 2.89 ± 0.23 nM | 0.66 ± 0.08 nM | –
56 | CC(=O)c1ccc2c(c1)oc(=O)n2CCCCN1CCN(c2ccc(F)cc2[N+](=O)[O-])CC1 [CM 592] | – | 6.3 ± 0.39 nM | –
57 | CC(=O)c1ccc2c(c1)oc(=O)n2CCCCN1CCCN(c2ccc(F)cc2)CC1 [CM 673] | 104 ± 8.06 nM | 50.6 ± 4.32 nM | –
58 | O=c1oc2ccccc2n1CCN1CCN(CC2CCCCC2)CC1 [CM 181] | – | 8.83 ± 1.17 nM | –
59 | O=c1oc2ccccc2n1CCN1CCN(c2ccccn2)CC1 [CM 178] | – | – | Ki (σ-1 receptor): > 10000 nM; Ki (σ-2 receptor): > 10000 nM
60 | O=c1oc2ccccc2n1CCCCN1CCN(CC2CC2)CC1 [CM 162] | 10.8 ± 1 nM | 46.8 ± 10.2 nM | –
61 | CC(=O)Nc1ccc2c(c1)oc(=O)n2CCCCN1CCN(c2ccc(F)cc2)CC1 [SN-248] | – | – | Ki (σ-1 receptor; [3]): 88.4 ± 12.7 nM; Ki (σ-2 receptor; [4]): 48.1 ± 5.68 nM
62 | CC(CCCn1c(=S)sc2ccccc21)N1CCN(C2CCCCC2)CC1 (stereo not shown) [AZ-59] | – | – | Ki (σ-1 receptor; [3]): 8.94 ± 1.64 nM; Ki (σ-2 receptor; [4]): 0.99 ± 0.178 nM
63 | O=c1oc2ccccc2n1CCCCN1CCN(c2ccccc2F)CC1 [CM 362] | – | 2.79 ± 0.49 nM | –
64 | Cl.Cl.O=c1sc2ccccc2n1CCCN1CCN(C2CCCCC2)CC1 [SN-99] | – | 2.44 nM | –
